Data published in paper PMC8110528.

B1: GFP-tagged wild-type MyD88 (cell-free expressed) [human] / itself (parent)
chain: MAAGGPGAGSAAPVSSTSSLPLAALNMRVRRRLSLFLNVRTQVAADWTALAEEMDFEYLEIRQLETQADPTGRLLDAWQGRPGASVGRLLELLTKLGRDDVLLELGPSIEEDCQKYILKQQQEEAEKPLQVAAVDSSVPRTAELAGITTLDDPLGHMPERFDAFICYCPSDIQFVQEMIRQLEQTNYRLKLCVSDRDVLPGTCVWSIASELIEKRCRRMVVVVSDDYLQSKECDFQTKFALSLSPGAHQKRLIPIKYKAMKKEFPSILRFITVCDYTNPCTKSWFWTRLAKALSLP

Variants of: B1
Experiment: single-molecule spectroscopy (average brightness of cell-free expressed GFP-tagged protein)
Settings: with itself;; read off a plot

Row | Variant | response [photons/ms]
1 | chain 1 D234A | 35
2 | chain 1 F239A | 240
3 | chain 1 P200A | 65
4 | chain 1 K238A | 190
5 | chain 1 R269A | 60
6 | chain 1 G80K | 40
7 | chain 1 F270E | 12
8 | chain 1 F270A | 20
9 | chain 1 L252P | 220
10 | chain 1 P245H | 660
11 | chain 1 R196A | 25
12 | chain 1 K282A | 140

Now from value to variant:

Row | response [photons/ms] | Variant
13 | 85 | chain 1 R288A
14 | 210 | chain 1 S242D
15 | 890 | chain 1 T281P
16 | 35 | chain 1 W284A
17 | 1100 | chain 1 S244D
18 | 800 | chain 1 S209R
